# According to the supplement of paper PMC12217912:
# The other results are listed elsewhere or left out. Sequences were assembled here from the parent chain. Inactive controls read about 0.05.
# B1: TEV protease; numbered along this chain (parent)
# chain: MGESLFKGPRDYNPISSSICHLTNESDGHTTSLYGIGFGPFIITNKHLFRRNNGTLVVQSLHGVFKVKDTTTLQQHLVDGRDMIIIRMPKDFPPFPQKLKFREPQREERICLVTTNFQTKSMSSMVSDTSCTFPSGDGIFWKHWIQTKDGQCGSPLVSTRDGFIVGIHSASNFTNTNNYFTSVPKNFMELLTNQEAQQWVSGWRLNADSVLWGGHKVFMVKPEEPFQPVKEATQL
# Variants of: B1
# Assay: raw area under fraction-flipped curve 0-4 h after induction (AUC4h, not background-subtracted), DNA-recorder readout of cleavage of the substrate (dimensionless); higher = more cleavage of the substrate by the protease variant
# Details: temperature: 34 °C; time window: 0-4 h after rhamnose induction
# Protocol: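 In vivo DNA recorder in E. coli TOP10(DE3) ΔrhaA at 34 °C. Each TEVp single-site mutant (parent TEVp 0) is paired with a single-site variant of the 7-mer TEVs (canonical ENLYFQ|S). The substrate sits between flexible linkers in a Bxb1-sfGFP-TEVs-SsrA fusion, so cleavage stabilises Bxb1 and speeds flipping of a recombination array, read by NGS. The value is the raw area under the fraction-flipped curve over 0-4 h after rhamnose induction (AUC4h), with ≥20 reads per time point. It is not background-subtracted; inactive controls average about 0.047.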
# 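Further: Bxb1 expression induced with 0.2% (w/v) L-rhamnose at OD600 near 0.5, cultures sampled hourly, flipped fraction per protease–substrate barcode pair counted by paired-end Illumina sequencing.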
Variant,area with substrate ENLYAQS,area with substrate ENLYDQS,area with substrate ENLYEQS,area with substrate ENLYGQS,area with substrate ENLYHQS,area with substrate ENLYIQS,area with substrate ENLYKQS,area with substrate ENLYMQS,area with substrate ENLYNQS,area with substrate ENLYPQS,area with substrate ENLYRQS,area with substrate ENLYSQS,area with substrate ENLYTQS,area with substrate ENLYVQS,area with substrate ENLYWQS,area with substrate ENLYYQS,area with substrate ENLYCQS,area with substrate ENLYLQS,area with substrate ENLYQQS
Y12W,0.0669,0.0593,0.072,0.0639,0.0666,0.124,0.0538,0.0751,0.0797,0.0722,0.0573,0.0716,0.0783,0.107,0.0642,0.0669,–,–,–
Y12H,0.1,–,0.0663,0.0684,0.0656,0.132,0.0632,0.124,0.0724,0.068,0.0561,–,0.113,0.136,0.068,0.0651,0.102,0.0902,0.0688
R10G,0.0763,0.0726,0.0663,0.0612,0.0653,0.0996,0.0389,0.0748,0.0572,0.0778,0.0604,0.0621,0.0798,0.126,0.077,0.0593,–,0.0864,0.0529
R10V,0.0609,–,0.0665,0.0698,0.0746,0.0922,0.0913,0.0714,0.0641,0.0739,0.067,–,–,–,0.0484,0.0636,0.063,0.0749,0.052
L22W,0.0491,–,0.0462,0.0596,–,0.0513,0.0543,0.0728,0.0453,0.0357,–,0.0513,0.0224,–,0.046,–,–,0.027,0.0375
I19H,0.0614,0.0603,0.0552,–,0.0586,–,0.0728,0.0697,0.0475,0.057,0.0823,0.0402,0.0673,0.108,0.0568,0.0619,0.0753,0.066,0.0569
G2M,0.0537,–,0.0543,–,–,0.15,0.103,0.0994,0.0649,–,–,0.0561,–,–,0.0828,–,–,–,0.0714
H21G,0.0713,0.0632,0.0645,0.0593,0.0724,0.139,0.0538,0.0772,0.0629,0.0697,0.0568,0.0743,0.0992,0.108,0.0805,0.0664,0.0888,–,0.0693
H21D,0.0602,0.0564,0.0516,0.0572,0.0772,0.0831,0.0315,0.0686,0.0649,0.068,0.0529,0.0672,–,0.0838,0.0594,–,0.0602,0.0516,0.0446
H21N,0.0748,0.0616,0.0314,0.0668,0.0546,0.104,0.061,0.0967,–,0.069,0.0574,0.0636,–,0.107,0.0713,–,0.0687,–,0.0564
H29D,0.0699,0.0519,0.061,0.0575,0.08,0.14,0.0572,0.0801,0.076,0.0831,0.0494,–,0.0929,–,0.0742,0.0661,–,–,0.0724
H29L,0.107,0.0586,0.0637,0.0674,0.0645,0.107,0.0649,0.0818,0.0776,0.0771,0.0641,0.0791,0.0879,0.144,–,–,–,–,0.0674
H29A,0.0906,0.0374,0.0685,0.0694,0.0684,0.122,0.0501,0.0793,0.0651,0.0681,0.0436,0.103,0.0611,0.127,0.0716,0.0704,–,–,0.0615
H29E,0.0745,0.0642,0.108,–,0.0675,0.153,0.0489,0.108,0.0744,0.0604,0.0742,0.0948,0.0881,0.139,0.0992,–,–,–,0.0277
S4R,0.0718,0.0591,0.0736,–,0.069,–,0.0599,0.159,0.074,–,0.0803,0.0482,–,0.165,–,–,–,0.102,0.0719
T31F,0.0791,0.0593,0.071,0.0526,0.0643,0.0931,0.0523,0.105,0.0669,0.0696,0.0623,0.0743,0.0493,0.0815,0.0732,–,–,0.0731,0.0609
T31W,0.0771,0.0535,0.0966,0.0805,0.0627,0.103,0.0442,0.0705,0.067,0.0718,0.0609,0.091,0.0905,0.0639,0.0814,0.0535,–,0.0813,0.0422
S17D,0.0734,0.0625,0.0656,0.0644,0.0606,0.171,0.0666,0.0783,0.0663,0.0711,0.0575,0.0924,0.0732,0.114,0.0737,0.063,0.114,0.122,0.0651
S17Q,0.0765,–,0.0778,0.086,0.0715,0.146,0.0906,0.0742,0.0691,0.0694,–,0.0866,0.0536,0.116,0.0664,0.0709,–,0.0736,0.0589
S17F,0.0547,0.0585,0.0607,0.0804,0.0664,–,0.0564,0.0672,0.0539,–,–,0.0577,0.0756,0.0936,0.0796,–,0.0612,–,0.0724
D11L,0.0645,0.0542,0.0639,0.0629,0.0627,0.0878,0.0568,0.0704,0.0641,0.069,0.0641,0.0767,0.102,0.0828,0.0706,0.0623,0.073,–,0.0582
D11S,0.0766,0.0649,0.0651,0.0601,0.0927,0.129,0.0664,0.122,0.0718,0.0714,0.0585,–,0.131,0.135,0.0856,–,0.0869,–,0.0638
